The supplement of paper PMC11125491
± gives the standard deviation of the averaged measurements. Growth of baker's yeast expressing single-residue variants of Pneumocystis jirovecii dihydrofolate reductase in 8.8 or 44 µM methotrexate (about 75% and 90% inhibition of the wild type). Selection coefficient per generation; 0 = like wild type, above 0 = less sensitive, below 0 = more sensitive or loss of function. No active / inactive call per row; the paper calls resistant above 0.220 (8.8 µM) or 0.243 (44 µM) together with a significance test. At 44 µM about 15% of codons end with one read or none, so the lowest values are floors (replicate rank correlation 0.74; 0.94 at 8.8 µM).

B1: UniProt A0EPZ9; numbered along this chain (parent)
chain: MDWQKSLTLIVALTLSRGIGLKNDLPWKLKSDMMFFSRVTSGLLVTRSTGQMNVVLMGRKTWESLPAHSRPLKNRINVVISRQEVLDLGGGAYHARSLDDALALLSQIYDSTSKIQLNRVFVIGGGELCKAAMEHSRLNRIIATVIHNEVDCDVFFPIDFRSSQSCLPWRKQDHSVLEAWVGSKVPQGKINENGFIYEFEMWIRDI

Variants of: B1
Assay: selection coefficient against synonymous wild-type codons (log2 per generation); higher = faster growth than wild type
Conditions: with Saccharomyces cerevisiae carrying the variant on a plasmid
Protocol: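 Pooled growth of yeast carrying single-residue variants of P. jirovecii dihydrofolate reductase (own DFR1 gene intact), two passages at 30 °C, three cultures, sequenced before and after. Codons with under 15 starting reads are left out; codons of one change are averaged.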

Row | Variant | selection coefficient against synonymous wild-type codons (log2) (methotrexate 8.8 µM) | selection coefficient against synonymous wild-type codons (log2) (methotrexate 44 µM)
1 | A103I | -0.0935 ± 0.03 | -0.0128 ± 0.11
2 | A95D | -0.742 ± 0.054 | -0.351 ± 0.084
3 | Y93A | -0.603 ± 0.17 | -0.173 ± 0.19
4 | I80L | -0.148 ± 0.049 | -0.1 ± 0.12
5 | N191C | -0.087 ± 0.041 | -0.111 ± 0.12
6 | L7P | -0.273 ± 0.13 | -0.192 ± 0.062
7 | C152Y | 0.123 ± 0.048 | 0.076 ± 0.14
8 | C152M | 0.456 ± 0.0098 | 0.503 ± 0.11
9 | P168L | -0.181 ± 0.043 | -0.222 ± 0.13
10 | G18D | -0.115 ± 0.14 | 0.0349 ± 0.051
11 | K189M | -0.0993 ± 0.025 | -0.107 ± 0.14
12 | L128P | -0.473 ± 0.15 | -0.137 ± 0.21
13 | R17A | 0.0805 ± 0.044 | -0.0441 ± 0.2
14 | E84R | -0.128 ± 0.068 | -0.0855 ± 0.15
15 | S16L | -0.318 ± 0.082 | -0.224 ± 0.12
16 | R82F | -0.613 ± 0.13 | -0.223 ± 0.062
17 | D99V | -0.419 ± 0.049 | -0.294 ± 0.1
18 | D99R | -0.509 ± 0.039 | -0.389 ± 0.061
19 | Q164A | -0.0434 ± 0.032 | -0.1 ± 0.069
20 | G182K | -0.0959 ± 0.025 | -0.11 ± 0.031
21 | S48T | -0.0137 ± 0.05 | -0.0723 ± 0.074
22 | L13D | 0.511 ± 0.014 | 0.644 ± 0.021
23 | V11G | 0.552 ± 0.077 | 0.64 ± 0.09
24 | V11P | 0.0348 ± 0.035 | 0.346 ± 0.04

Row | Variant | selection coefficient against synonymous wild-type codons (log2) (methotrexate 8.8 µM) | selection coefficient against synonymous wild-type codons (log2) (methotrexate 44 µM)
25 | K22G | 0.0944 ± 0.023 | 0.0251 ± 0.032
26 | T61R | -0.506 ± 0.046 | -0.259 ± 0.048
27 | T61G | -0.431 ± 0.098 | -0.25 ± 0.044
28 | T61V | -0.423 ± 0.12 | -0.326 ± 0.082
29 | G20I | -0.38 ± 0.069 | -0.132 ± 0.055
30 | A92Y | -0.546 ± 0.19 | -0.188 ± 0.031
31 | K73N | -0.161 ± 0.066 | -0.218 ± 0.038
32 | K73G | -0.183 ± 0.1 | -0.136 ± 0.14
33 | G58H | -0.599 ± 0.013 | -0.309 ± 0.053
34 | G58D | -0.46 ± 0.11 | -0.268 ± 0.15
35 | D153F | -0.359 ± 0.018 | -0.305 ± 0.034
36 | M33A | 0.958 ± 0.035 | 1.22 ± 0.021
37 | S111L | -0.312 ± 0.15 | 0.0433 ± 0.055
38 | E127D | -0.145 ± 0.033 | -0.0722 ± 0.1
39 | C166Y | -0.0268 ± 0.056 | -0.0757 ± 0.12
40 | L104F | -0.319 ± 0.061 | -0.147 ± 0.18
41 | Y109P | -0.126 ± 0.048 | -0.0599 ± 0.12
42 | D87L | -0.493 ± 0.15 | -0.278 ± 0.068
43 | T40A | -0.0516 ± 0.065 | 0.209 ± 0.04
44 | I115A | -0.0642 ± 0.031 | -0.0809 ± 0.099
45 | A131Q | 0.0609 ± 0.025 | 0.0353 ± 0.092
46 | H94E | -0.432 ± 0.21 | -0.296 ± 0.2
47 | H94S | -0.366 ± 0.074 | -0.312 ± 0.051
48 | F36M | 0.441 ± 0.06 | 0.466 ± 0.16

Row | Variant | selection coefficient against synonymous wild-type codons (log2) (methotrexate 8.8 µM) | selection coefficient against synonymous wild-type codons (log2) (methotrexate 44 µM)
49 | F36Y | 0.781 ± 0.05 | 0.969 ± 0.041
50 | F36T | -0.0565 ± 0.079 | 0.149 ± 0.048
51 | G91T | -0.0614 ± 0.07 | -0.11 ± 0.12
52 | F156Y | 0.36 ± 0.059 | 0.37 ± 0.026
53 | F156K | -0.255 ± 0.057 | -0.181 ± 0.096
54 | F156T | 0.557 ± 0.048 | 0.646 ± 0.032
55 | K171V | -0.129 ± 0.07 | -0.179 ± 0.14
56 | D32R | -0.658 ± 0.046 | -0.289 ± 0.11
57 | I76K | -0.699 ± 0.042 | -0.196 ± 0.047
58 | G89Y | -0.379 ± 0.0044 | -0.333 ± 0.048
59 | R38P | 0.228 ± 0.036 | 0.323 ± 0.076
60 | R38S | 0.0387 ± 0.039 | 0.00399 ± 0.063
61 | E134L | -0.189 ± 0.043 | -0.106 ± 0.066
62 | L25H | -0.213 ± 0.075 | -0.188 ± 0.06
63 | L25T | -0.0748 ± 0.075 | -0.0475 ± 0.053
64 | V39H | 0.0264 ± 0.051 | 0.166 ± 0.039
65 | P66Y | -0.14 ± 0.11 | -0.012 ± 0.11
66 | N53V | -0.0366 ± 0.022 | 0.0923 ± 0.056
67 | L44E | 0.298 ± 0.022 | 0.278 ± 0.018
68 | L88H | -0.382 ± 0.075 | -0.282 ± 0.075
69 | N77A | 0.201 ± 0.024 | 0.29 ± 0.076
70 | N77K | -0.364 ± 0.1 | -0.247 ± 0.059
71 | D205H | -0.197 ± 0.068 | -0.24 ± 0.23
72 | D205A | -0.175 ± 0.08 | -0.312 ± 0.13

Row | Variant | selection coefficient against synonymous wild-type codons (log2) (methotrexate 8.8 µM) | selection coefficient against synonymous wild-type codons (log2) (methotrexate 44 µM)
73 | D24A | -0.0307 ± 0.066 | 0.0715 ± 0.1
74 | I10Y | 1.11 ± 0.053 | 1.46 ± 0.043
75 | M34S | 0.00734 ± 0.057 | -0.0271 ± 0.057
76 | I190V | -0.0297 ± 0.038 | -0.0552 ± 0.044
77 | W180R | -0.267 ± 0.1 | -0.169 ± 0.13
78 | D2F | -0.379 ± 0.07 | -0.149 ± 0.038
79 | I141D | -0.666 ± 0.049 | -0.163 ± 0.039
80 | I141V | 0.074 ± 0.021 | 0.102 ± 0.038
81 | H147R | -0.0265 ± 0.04 | -0.17 ± 0.13
82 | I108M | 0.00166 ± 0.047 | 0.00625 ± 0.035
83 | D100V | -0.525 ± 0.2 | -0.274 ± 0.095
84 | S136C | 0.00655 ± 0.034 | -0.00998 ± 0.1
85 | S136F | 0.0694 ± 0.033 | 0.16 ± 0.09
86 | P26S | 0.123 ± 0.053 | 0.113 ± 0.1
87 | P26A | -0.0539 ± 0.093 | 0.0154 ± 0.052
88 | L167N | 0.0291 ± 0.044 | -0.068 ± 0.073
89 | L167S | 0.0207 ± 0.048 | 0.0194 ± 0.11
90 | S37L | -0.146 ± 0.052 | -0.112 ± 0.11
91 | W27E | -0.355 ± 0.065 | -0.224 ± 0.14
92 | Q51C | -0.0719 ± 0.12 | -0.000704 ± 0.033
93 | V45C | 0.0459 ± 0.039 | 0.0194 ± 0.075
94 | L138M | -0.0411 ± 0.039 | -0.0194 ± 0.14
95 | L138H | -0.0836 ± 0.017 | -0.113 ± 0.041
96 | W62T | -0.488 ± 0.1 | -0.24 ± 0.095

Row | Variant | selection coefficient against synonymous wild-type codons (log2) (methotrexate 8.8 µM) | selection coefficient against synonymous wild-type codons (log2) (methotrexate 44 µM)
97 | T112V | -0.27 ± 0.047 | -0.192 ± 0.25
98 | W202N | -0.516 ± 0.11 | -0.192 ± 0.072
99 | W202M | 0.0886 ± 0.047 | 0.0353 ± 0.023
100 | L9S | -0.368 ± 0.12 | -0.183 ± 0.1
101 | L9D | -0.527 ± 0.11 | -0.28 ± 0.14
102 | A101R | -0.786 ± 0.033 | -0.281 ± 0.041
103 | K184L | -0.179 ± 0.048 | -0.305 ± 0.11
104 | H135G | -0.291 ± 0.05 | -0.231 ± 0.12
105 | R119S | 0.123 ± 0.018 | 0.174 ± 0.073
106 | S64M | -0.363 ± 0.076 | -0.227 ± 0.034
107 | S163A | -0.0366 ± 0.055 | -0.119 ± 0.1
108 | Q83G | -0.188 ± 0.058 | -0.228 ± 0.13
109 | N23V | 0.0151 ± 0.048 | 0.0776 ± 0.053
110 | L72F | 0.339 ± 0.017 | 0.394 ± 0.013
111 | T8A | -0.402 ± 0.13 | -0.31 ± 0.083
112 | M133Y | -0.0908 ± 0.07 | 0.0188 ± 0.24
113 | M133N | -0.45 ± 0.076 | -0.262 ± 0.028
114 | I158L | 0.0166 ± 0.031 | -0.0583 ± 0.1
115 | S41K | 0.0752 ± 0.051 | 0.0888 ± 0.15
116 | D159Q | 0.00557 ± 0.087 | -0.0601 ± 0.12
